Laboratory results from PubChem BioAssay AID743279 (National Center for Advancing Translational Sciences (NCATS), 2014).
The campaign covered roughly 360,000 compounds. About 17,000 (4.7%) were called active. The shares of active, inactive and inconclusive entries below differ from those in the screen. Cut-off read from the data, not from the text of the source: active = activity change below about -50%; inconclusive = mostly about -30% to -49%; inactive = weaker than that.

assay: qHTS for Inhibitors of Inflammasome Signaling: IL-1-beta AlphaLISA Primary Screen; conditions: THP-1 LPS/ATP IL-1B secretion, 16 h; at 57.5 µM, active compounds read low
Summary of the method: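 THP-1 cells pretreated 1 hr with compounds (up to 57.5 uM final), then stimulated with LPS (250 ng/mL final) plus ATP (1.25 mM final); secreted IL-1B measured by AlphaLISA after 16 hr, decreased signal indicating inhibition.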
% is set by controls: 0 for no effect and ±100 for the full control effect.

Activity change, active:
Cc1cccn2c(=O)c3cc(C(=O)NCc4ccco4)c(=N)n(CCc4ccccc4)c3nc12 -84.6%, COc1ccccc1C=Cc1ccnc2ccccc12 -93.1%, COc1ccccc1/C=C/C(=O)c1cc(Br)ccc1OC(=O)c1ccco1 -97.7%, O=C(c1ccccc1NS(=O)(=O)c1ccc(Br)cc1)N1CCOCC1 -52.8%, COc1cc(/C=C/c2ccc3cccc(O)c3n2)cc(Cl)c1OC -93.3%, CN(C)CCN1C(=O)c2cccc3cc([N+](=O)[O-])cc(c23)C1=O -102%, Cc1c2ccccc2nc2c(F)c(NCCO)c(F)c(F)c12 -86.6%, Cc1cc[n+](C(C)C(=O)c2ccc(-c3ccccc3)cc2)cc1 (centres undefined) -57.9%, CCCSC(=S)NC1CCS(=O)(=O)C1 (centres undefined) -105%, CC(C)C[C@H]1CN([C@@H](Cc2ccccc2)CN2CCC[C@@H]2CN2C(=O)C(=O)NC[C@@H]2Cc2ccccc2)C(=O)C(=O)N1CCc1ccccc1 -67.1%, Fc1ccc(NC(=S)Nc2ccc(Br)cc2)cc1 -92.8%, CC1C(C)N(C(=O)CCl)c2ccccc2N1C(=O)CCl (centres undefined) -101%, COc1ccc(C2CC(=O)C3=C(C2)NC(C)=C(C#N)C3c2ccc(N(C)C)cc2)cc1 (centres undefined) -65.6%, CCC[C@@H](CN1CCC[C@H]1CN1C(N)=NC[C@H]1C(C)C)N1C[C@@H](Cc2ccccc2)N(CCCC2CCCC2)C1=N -63.5%

Activity change, inactive:
COc1ccc(N2CC(C(=O)N3CCN(Cc4ccc5c(c4)OCO5)CC3)CC2=O)cc1 (centres undefined) 28.7%, O=C(NNC(=O)c1cccs1)c1ccccn1 4.71%, CC1(C(=O)NS(=O)(=O)C2CC2)CCN(C(=O)c2cc(F)cc(F)c2)C1 (centres undefined) 11.8%, CC(C)(CO)NCc1ccc(Br)cc1 -4.46%, CC(=O)c1ccc(NC(=O)c2ccc(COc3ccccc3[N+](=O)[O-])o2)cc1 -2.05%, COc1ccc(Oc2ccc(/C=C/C(=O)c3cccc(OC)c3)cc2[N+](=O)[O-])cc1 -3.64%, O=[N+]([O-])c1cccc(CN2CCCCCC2)c1 -1.77%, Cc1ccc(N2CCN(CC(O)COC3CCCCC3)CC2)cc1 (centres undefined) 14.7%, O=C(Nc1ccc2c(c1)nc1n2CCN(C2CCCCC2)C1)c1ccco1 -23.1%, NC(=O)CSc1nnc(NC(=O)c2ccc(S(=O)(=O)N3CCCCC3)cc2)s1 4.78%, COC(=O)[C@]12CCCCC=C1N(Cc1ccco1)C(=O)[C@H](CC(=O)NCCCCc1ccccc1)C2 4%, COc1cccc(/C=N/Nc2ccc(C(=O)O)cc2)c1O 8.47%, COc1ccc(C)cc1S(=O)(=O)N1CCCC(N2CCOCC2)C1 (centres undefined) 0%, Cc1ccc(OCCn2c(CCNC(=O)C(C)C)nc3ccccc32)cc1 -13.7%, NC(=S)N/N=C/c1ccc2ccccc2c1 7.29%, Cc1c(NC(=S)NC(=O)c2ccc(-c3ccc(Cl)cc3)o2)cccc1C(=O)O 26.4%, CCCCN(CC)C(=O)Cn1nc(Cc2ccncc2)c2ccccc2c1=O -21.4%, Fc1cccc(CO/N=C/c2c(-c3ccccc3)nc3ccc(Cl)cn23)c1 0.808%, CC(CCl)OC(C)CCl (centres undefined) -1.52%, COc1ccc(-c2cc3c(=O)n(CC(=O)Nc4ccc(Cl)cc4)nc(C)n3n2)cc1 84.8%, CC1CCc2nc(NC(=O)C3CC3)sc2C1 (centres undefined) 15%, CC(C(=O)N1CCOCC1)c1ccccc1 (centres undefined) -1.14%, O=C(NNC(=O)C12CC3CC(CC(Br)(C3)C1)C2)c1ccccc1F -7.31%, Cc1ccc(S(=O)(=O)N(CC(=O)NCC2CCCO2)C2CCCCC2)cc1 (centres undefined) -0.432%, CCCNC(=O)OC1CC2CC1[C@H]1CCCCN1C2=O (some centres undefined) -1.43%, Cn1cc([N+](=O)[O-])c(C(=O)Nc2cc(Oc3ccccc3)cc([N+](=O)[O-])c2)n1 -14.7%, CC(=O)c1ccc(N2CCN(S(=O)(=O)c3ccc4c5c3CC(=O)N5CC(C)S4)CC2)cc1 (centres undefined) 0.733%

Activity change, inconclusive:
Cc1ccc(NC(=S)c2ccccc2)cc1 -35.5%, COc1cccc(NC(=S)N(Cc2ccc(C)cc2)Cc2ccccn2)c1 -38.6%, COc1cccc(N(CC(=O)Nc2ccc3c(c2)OCO3)S(=O)(=O)c2ccccc2)c1 -38.2%, COc1ccc(CN(C(=O)c2nsc(Cl)c2Cl)C(C(=O)NC2CCCC2)c2ccc(OC)cc2)cc1 (centres undefined) -30.4%, CCCc1nnc(NC(=O)c2nc(S(=O)(=O)Cc3cccc(C)c3)ncc2Cl)s1 -33.7%, COC(=O)c1ccc(N=C2S/C(=C\c3cc(C)n(-c4cccnc4)c3C)C(=O)N2C)cc1 -35.2%, Oc1ccc(/C=N/NC(=S)N2CCOCC2)cc1 -35.9%, Cc1ccc(NC(=O)CCn2cccc2)cc1Cl -36.4%, Cc1ccc2nc(CSc3nc(C)ccc3C#N)[nH]c2c1 -45.2%, CCSc1nnc(-c2sc3nnc(-c4ccccc4)c(-c4ccccc4)c3c2N)o1 -38.9%, C[C@@H]1CN([C@@H](C)CO)C(=O)CCCn2nncc2CO[C@@H]1CN(C)S(=O)(=O)c1ccc(Oc2ccccc2)nc1 -31.5%, C[C@H]1CN([C@@H](C)CO)C(=O)c2cc(NC(=O)C3CCCCC3)ccc2O[C@H]1CN(C)CC1CCCCC1 -46.3%, CC1CCCC(C)N1CCNC(=O)CCc1nnc2n(Cc3ccccc3)c(=O)c3ccccc3n12 (centres undefined) -32.5%, COc1cc(SC)ccc1C(=O)Nc1ccc2c(c1)CCC2 -47.5%, CCSc1ccc([C@@H]2[C@@H]3C(=O)N(C)C(=O)[C@@H]3[C@]3(C(=O)OC)CCCCN23)cc1 -46.8%, C=CCOc1ccccc1CN1CCC(C(=O)Nc2cccc(-c3ccn[nH]3)c2)CC1 -40.9%, CN(Cc1cn(Cc2cccc(C(F)(F)F)c2)nn1)C1CN(Cc2cn(Cc3cccc(C(F)(F)F)c3)nn2)S(=O)(=O)C1 (centres undefined) -30.1%, CC(OC(=O)/C=C/c1ccc2ccccc2n1)C(=O)Nc1ccc(S(N)(=O)=O)cc1 (centres undefined) -35.1%, Cc1nn(-c2ccccc2)c(Cl)c1C(=O)OCC(=O)NCCc1ccccc1 -34.9%, COCC(=O)Nc1c(C(=O)Nc2ccc3c(c2)OCCO3)oc2ccccc12 -30.7%, COc1ccc(NC(=O)Nc2cccc(F)c2)c(OC)c1 -34.7%, COc1ccc(C2c3cc(OC)c(OC)cc3CCN2C(=O)c2ccccc2Br)cc1OC (centres undefined) -36.9%, Cc1ccc(C(=O)Nc2sc(C)c(C)c2C(=O)c2ccccc2)cc1 -48.3%, COc1ccc(Cn2c(=O)[nH]c3cc(C(=O)NCCCN4CCCCC4)ccc3c2=O)cc1 -37.3%, Cc1ccc(CN(C(=O)c2csnn2)C(C(=O)NC2CCCC2)c2ccco2)cc1 (centres undefined) -35.2%, O=C(Nc1ccccc1N1CCN(c2ccc(F)cc2)CC1)c1ccccc1 -43.4%, Clc1ccc(CSC2=NCCCN2)cc1Cl -34%, CC(C)c1ccccc1NC(=O)COC(=O)CCN1C(=O)/C(=C\C=C\c2ccccc2)SC1=S -42.1%, CC(=O)Nc1ccc(S(=O)(=O)N2CCN(C3CCCCCCC3)CC2)cc1 -45%, Oc1ccccc1C=NNc1nc2ccccc2s1 -46.5%, Cc1nn(-c2ccccc2)c(C)c1C(=O)OCC(=O)c1c(N)n(CC(C)C)c(=O)n(C)c1=O -37.2%, N#Cc1ccc(C2=CC(=O)C[C@H](c3ccc(Cl)cc3)C2)cc1 -44%, CCO/C(C)=N/n1c2nc3ccccc3nc2c2c(=O)n(Cc3ccccc3Cl)c(C)nc21 -38.9%, CCc1c2c(nc3ccc(OC(=O)N4CCC(N5CCCCC5)CC4)cc13)-c1cc3c(c(=O)n1C2)COC(=O)[C@]3(O)CC -43.2%, COc1ccc2c(C)cc(=O)sc2c1 -32.5%, COc1ccc(C(=O)OCC(=O)c2ccc(S(=O)(=O)N3CCCCC3)cc2)c(OC)c1 -30.2%, CCN(CC(=O)Nc1ccc(NC(C)=O)cc1)S(=O)(=O)/C=C/c1ccccc1 -39.7%, COc1cccc(CCN2C(=O)C(=O)N([C@@H](CNCc3ccccc3)Cc3ccccc3F)C[C@@H]2C(C)(C)C)c1 -43.7%, O=C(NCCN1C(=O)S/C(=C\c2ccccc2F)C1=O)C1CCN(S(=O)(=O)c2cccs2)CC1 -33.9%, COc1cccc(CN(C)C(=O)c2ccc(COc3ccc(Cl)cc3)cc2)c1OC -49.8%, CC12CC(NC(=O)N1c1cccc(C(=O)NCc3ccc4c(c3)OCO4)c1)c1cc(Cl)ccc1O2 (centres undefined) -49.8%, CCN(CC)CCN(C(=O)c1ccc2c(c1)CCCC2)c1nc2ccc(F)cc2s1 -49.8%, CCCCN(C)c1c(C)nc2ccc(C(=O)Nc3cc(-c4ccccc4)ccc3OC)cn12 -43.2%
